Assay [1] addresses T1, Myc-EHD1 ΔEH (human) (UniProt Q9H4M9).
T1 sequence: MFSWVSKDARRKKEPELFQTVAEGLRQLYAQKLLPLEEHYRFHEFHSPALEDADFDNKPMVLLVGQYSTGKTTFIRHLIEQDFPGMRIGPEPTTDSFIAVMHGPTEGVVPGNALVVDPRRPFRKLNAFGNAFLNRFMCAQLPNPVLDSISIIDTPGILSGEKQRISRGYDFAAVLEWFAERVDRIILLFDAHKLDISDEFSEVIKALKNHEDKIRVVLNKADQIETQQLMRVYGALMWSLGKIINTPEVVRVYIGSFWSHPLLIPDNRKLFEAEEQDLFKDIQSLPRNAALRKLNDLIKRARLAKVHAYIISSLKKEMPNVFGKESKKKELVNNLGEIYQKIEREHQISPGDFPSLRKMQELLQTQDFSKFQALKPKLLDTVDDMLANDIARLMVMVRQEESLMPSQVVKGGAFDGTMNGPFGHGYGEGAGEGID
In words: co-IP; HEK 293T co-transfected with one Myc-EHD ΔEH and one EHD-GFP construct; same lysis buffer; lysates rocked only 1–2 hours at 4°C; IP anti-Myc (9E10), anti-GFP immunoblot.

Chains of the proteins cited; added tags and fusions are not shown.
UniProt Q13596: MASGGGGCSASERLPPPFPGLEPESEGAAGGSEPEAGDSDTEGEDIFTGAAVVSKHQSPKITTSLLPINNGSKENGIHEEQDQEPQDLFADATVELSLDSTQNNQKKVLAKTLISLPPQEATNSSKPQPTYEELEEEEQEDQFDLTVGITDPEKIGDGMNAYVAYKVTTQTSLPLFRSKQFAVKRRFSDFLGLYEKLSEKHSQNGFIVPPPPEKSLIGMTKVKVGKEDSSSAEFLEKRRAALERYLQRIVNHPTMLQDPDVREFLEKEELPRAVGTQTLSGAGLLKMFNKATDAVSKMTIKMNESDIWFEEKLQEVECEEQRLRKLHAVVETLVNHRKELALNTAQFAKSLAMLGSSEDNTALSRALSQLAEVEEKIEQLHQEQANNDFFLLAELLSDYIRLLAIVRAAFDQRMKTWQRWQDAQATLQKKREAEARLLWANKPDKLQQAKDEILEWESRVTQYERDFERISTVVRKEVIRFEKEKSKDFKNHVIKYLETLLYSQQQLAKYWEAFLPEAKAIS

Assay [2] has as its target T2, Myc-EHD2 ΔEH (human) (UniProt Q9NZN4).
T2 sequence: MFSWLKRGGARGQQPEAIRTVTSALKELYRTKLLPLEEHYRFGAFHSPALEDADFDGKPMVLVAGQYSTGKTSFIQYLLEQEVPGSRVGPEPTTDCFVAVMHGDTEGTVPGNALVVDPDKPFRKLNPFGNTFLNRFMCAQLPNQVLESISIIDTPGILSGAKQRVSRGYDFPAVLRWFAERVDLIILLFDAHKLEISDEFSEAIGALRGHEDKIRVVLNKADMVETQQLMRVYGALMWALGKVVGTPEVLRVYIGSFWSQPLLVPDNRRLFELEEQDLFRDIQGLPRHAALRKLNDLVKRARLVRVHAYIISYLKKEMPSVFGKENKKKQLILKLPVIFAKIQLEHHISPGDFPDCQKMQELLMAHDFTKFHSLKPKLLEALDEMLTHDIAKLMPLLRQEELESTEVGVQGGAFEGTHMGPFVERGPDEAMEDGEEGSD
The description is as above.

Assay [3] addresses T3, Myc-EHD3 ΔEH (human) (UniProt Q9NZN3).
T3 sequence: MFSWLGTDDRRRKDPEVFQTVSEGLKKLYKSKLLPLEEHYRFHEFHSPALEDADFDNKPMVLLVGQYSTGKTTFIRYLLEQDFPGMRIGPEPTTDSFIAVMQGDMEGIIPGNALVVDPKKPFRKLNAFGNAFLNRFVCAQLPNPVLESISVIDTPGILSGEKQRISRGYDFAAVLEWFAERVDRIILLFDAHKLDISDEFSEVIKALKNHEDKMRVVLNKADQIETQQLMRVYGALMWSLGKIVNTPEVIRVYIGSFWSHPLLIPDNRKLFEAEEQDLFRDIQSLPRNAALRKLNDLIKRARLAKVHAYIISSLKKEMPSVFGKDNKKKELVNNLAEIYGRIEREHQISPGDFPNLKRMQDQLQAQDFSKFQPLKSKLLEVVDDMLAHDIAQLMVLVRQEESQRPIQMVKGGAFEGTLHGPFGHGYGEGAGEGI
Described as above.

The target in assay [4] is T4, Myc-EHD4 ΔEH (human) (UniProt Q9H223).
T4 sequence: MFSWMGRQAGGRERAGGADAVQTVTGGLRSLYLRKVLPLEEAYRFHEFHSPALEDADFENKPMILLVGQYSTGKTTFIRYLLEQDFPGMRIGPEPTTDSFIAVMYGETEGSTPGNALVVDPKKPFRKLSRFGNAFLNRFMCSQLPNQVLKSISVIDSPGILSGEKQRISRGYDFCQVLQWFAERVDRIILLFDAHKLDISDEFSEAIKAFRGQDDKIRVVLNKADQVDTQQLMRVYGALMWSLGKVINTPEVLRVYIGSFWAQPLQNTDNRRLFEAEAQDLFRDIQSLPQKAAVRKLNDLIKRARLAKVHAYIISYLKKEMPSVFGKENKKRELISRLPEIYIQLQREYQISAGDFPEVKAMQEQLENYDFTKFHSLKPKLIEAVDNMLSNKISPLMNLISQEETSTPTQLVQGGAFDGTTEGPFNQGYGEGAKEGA
Described as above.

For assay [5], the target named is Myc-sorting nexin-1 (SNX1) (UniProt Q13596). In words: co-IP; HEK 293T co-transfected with one Myc-tagged and one GFP-tagged construct (2.5 μg each); lysis in 1% Triton X-100, 150 mM NaCl, 50 mM Tris-HCl pH 7.6; lysates rocked overnight at 4°C; 1 mg lysate, IP with 3 μg anti-Myc (9E10), anti-GFP immunoblot.

No constants are given. Whether binding was seen depends on the method and setting. Binding seen in cells or lysates may run through a third protein. Some entries that bind do so weakly or less than the wild type. Where a sequence is shown, tags or fusion partners need not be part of it.

B1: EHD2-GFP (protein, UniProt Q9NZN4 1-543)
chain: MFSWLKRGGARGQQPEAIRTVTSALKELYRTKLLPLEEHYRFGAFHSPALEDADFDGKPMVLVAGQYSTGKTSFIQYLLEQEVPGSRVGPEPTTDCFVAVMHGDTEGTVPGNALVVDPDKPFRKLNPFGNTFLNRFMCAQLPNQVLESISIIDTPGILSGAKQRVSRGYDFPAVLRWFAERVDLIILLFDAHKLEISDEFSEAIGALRGHEDKIRVVLNKADMVETQQLMRVYGALMWALGKVVGTPEVLRVYIGSFWSQPLLVPDNRRLFELEEQDLFRDIQGLPRHAALRKLNDLVKRARLVRVHAYIISYLKKEMPSVFGKENKKKQLILKLPVIFAKIQLEHHISPGDFPDCQKMQELLMAHDFTKFHSLKPKLLEALDEMLTHDIAKLMPLLRQEELESTEVGVQGGAFEGTHMGPFVERGPDEAMEDGEEGSDDEAEWVVTKDKSKYDEIFYNLAPADGKLSGSKAKTWMVGTKLPNSVLGRIWKLSDVDRDGMLDDEEFALASHLIEAKLEGHGLPANLPRRLVPPSKRRHKGSAE
Regarding B1, the binding entry was “binds” in assay [1], “binds” in assay [2], “binds weakly” in assay [3] and “binds weakly” in assay [4].

B2: EHD3-GFP (protein, UniProt Q9NZN3-1 1-535)
chain: MFSWLGTDDRRRKDPEVFQTVSEGLKKLYKSKLLPLEEHYRFHEFHSPALEDADFDNKPMVLLVGQYSTGKTTFIRYLLEQDFPGMRIGPEPTTDSFIAVMQGDMEGIIPGNALVVDPKKPFRKLNAFGNAFLNRFVCAQLPNPVLESISVIDTPGILSGEKQRISRGYDFAAVLEWFAERVDRIILLFDAHKLDISDEFSEVIKALKNHEDKMRVVLNKADQIETQQLMRVYGALMWSLGKIVNTPEVIRVYIGSFWSHPLLIPDNRKLFEAEEQDLFRDIQSLPRNAALRKLNDLIKRARLAKVHAYIISSLKKEMPSVFGKDNKKKELVNNLAEIYGRIEREHQISPGDFPNLKRMQDQLQAQDFSKFQPLKSKLLEVVDDMLAHDIAQLMVLVRQEESQRPIQMVKGGAFEGTLHGPFGHGYGEGAGEGIDDAEWVVARDKPMYDEIFYTLSPVDGKITGANAKKEMVRSKLPNSVLGKIWKLADIDKDGMLDDDEFALANHLIKVKLEGHELPNELPAHLLPPSKRKVAE
Regarding B2, the binding entry in assay [1] was “binds”; in assay [2], “binds weakly”; in assay [3], “binds”; in assay [4], “binds”.

B3: EHD1-GFP (protein, UniProt Q9H4M9 1-534)
chain: MFSWVSKDARRKKEPELFQTVAEGLRQLYAQKLLPLEEHYRFHEFHSPALEDADFDNKPMVLLVGQYSTGKTTFIRHLIEQDFPGMRIGPEPTTDSFIAVMHGPTEGVVPGNALVVDPRRPFRKLNAFGNAFLNRFMCAQLPNPVLDSISIIDTPGILSGEKQRISRGYDFAAVLEWFAERVDRIILLFDAHKLDISDEFSEVIKALKNHEDKIRVVLNKADQIETQQLMRVYGALMWSLGKIINTPEVVRVYIGSFWSHPLLIPDNRKLFEAEEQDLFKDIQSLPRNAALRKLNDLIKRARLAKVHAYIISSLKKEMPNVFGKESKKKELVNNLGEIYQKIEREHQISPGDFPSLRKMQELLQTQDFSKFQALKPKLLDTVDDMLANDIARLMVMVRQEESLMPSQVVKGGAFDGTMNGPFGHGYGEGAGEGIDDVEWVVGKDKPTYDEIFYTLSPVNGKITGANAKKEMVKSKLPNTVLGKIWKLADVDKDGLLDDEEFALANHLIKVKLEGHELPADLPPHLVPPSKRRHE
On to B3, for which the binding entry in assay [1] is on record as “binds”; in assay [2] it was “binds”; in assay [3], “binds”; in assay [4] it was “binds”; in assay [5], “no binding”.

B4: EHD4-GFP (protein, UniProt Q9H223 1-541)
chain: MFSWMGRQAGGRERAGGADAVQTVTGGLRSLYLRKVLPLEEAYRFHEFHSPALEDADFENKPMILLVGQYSTGKTTFIRYLLEQDFPGMRIGPEPTTDSFIAVMYGETEGSTPGNALVVDPKKPFRKLSRFGNAFLNRFMCSQLPNQVLKSISVIDSPGILSGEKQRISRGYDFCQVLQWFAERVDRIILLFDAHKLDISDEFSEAIKAFRGQDDKIRVVLNKADQVDTQQLMRVYGALMWSLGKVINTPEVLRVYIGSFWAQPLQNTDNRRLFEAEAQDLFRDIQSLPQKAAVRKLNDLIKRARLAKVHAYIISYLKKEMPSVFGKENKKRELISRLPEIYIQLQREYQISAGDFPEVKAMQEQLENYDFTKFHSLKPKLIEAVDNMLSNKISPLMNLISQEETSTPTQLVQGGAFDGTTEGPFNQGYGEGAKEGADEEEWVVAKDKPVYDELFYTLSPINGKISGVNAKKEMVTSKLPNSVLGKIWKLADCDCDGMLDEEEFALAKHLIKIKLDGYELPSSLPPHLVPPSHRKSLPKAD
Regarding B4, the binding result is given as “binds” in assay [1], “binds weakly” in assay [2], “binds” in assay [3] and “binds” in assay [4].

The values are drawn from PMC1793994.
